From PubChem BioAssay (NCATS)
The shares of active, inactive and inconclusive entries below differ from those in the screen. No potency is given beside an inconclusive call; the fits are too rough. Activity calls are given as the source filed them. Calls come from the whole dose curve; as a rule, active = well fitted inhibition curve with a large enough effect; inconclusive = small, poorly fitted or top-dose-only effect; inactive = flat fitted curve, though single readings scatter.

target: Phospholipid hydroperoxide glutathione peroxidase GPX4 (Homo sapiens) (UniProt P36969); assay: Primary qHTS Assay for Inhibitors of Recombinant Selenoprotein Glutathione Peroxidase 4 (GPX4) (AID 1845192); conditions: recombinant GPX4, GR-coupled NADPH fluorescence, 15 min; series mostly up to 50 µM; note: nearly all actives have a fitted effect of over 65% in size
Method in brief: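 NADPH consumption followed by fluorescence at 340/450 nm, t=0 and after 15 min at room temperature. Reaction started with cumene hydroperoxide (0.5 mM final) after 30 min compound–GPX4 preincubation; final 200 nM GPX4, 100 nM GR, 1 mM GSH, 0.5 mM NADPH.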
% is set by controls: 0 for no effect and ±100 for the full control effect; potency is the fitted concentration of half-maximal effect; tags give direction and shape of the fitted curve.

Sequence of UniProt P36969 (P36969 whole entry, looked up): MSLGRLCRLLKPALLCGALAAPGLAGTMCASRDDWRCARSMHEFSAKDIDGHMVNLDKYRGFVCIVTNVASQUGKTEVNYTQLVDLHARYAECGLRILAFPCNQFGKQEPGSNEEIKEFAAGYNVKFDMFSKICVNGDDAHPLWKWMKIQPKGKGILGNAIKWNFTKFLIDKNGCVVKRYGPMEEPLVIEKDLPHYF

Row | SMILES | Potency | activity change, negative = inhibition
1 | NC(=O)N1c2ccccc2C=Cc2ccccc21 | inactive | –
2 | COC(=O)[C@H]1[C@H]2C[C@@H]3c4[nH]c5cc(OC)ccc5c4CCN3C[C@H]2C[C@@H](OC(=O)/C=C/c2cc(OC)c(OC)c(OC)c2)[C@@H]1OC | inconclusive [inhibitor, partial curve] | –
3 | O=C(O)c1cc(=O)c2c3nc4ccccc4oc-3cc(=O)c2[nH]1 | active: 7.94 µM | –
4 | CC[C@@H](C(=O)O)[C@@H]1O[C@@H]([C@@H](C)[C@H](O)[C@H](C)C(=O)[C@H](CC)[C@H]2O[C@]3(C=C[C@@H](O)[C@]4(CC[C@@](C)([C@H]5CC[C@](O)(CC)[C@H](C)O5)O4)O3)[C@H](C)C[C@@H]2C)[C@@H](C)C[C@@H]1C | inconclusive [inhibitor, full curve] | –
5 | C[n+]1cc2c3c(ccc2c2ccc4cc5c(cc4c21)OCO5)OCO3 | inactive | –
6 | COc1cc(/C=C/C(=O)CC(=O)/C=C/c2ccc(O)c(OC)c2)ccc1O | inconclusive [inhibitor, single point] | –
7 | COc1ccc(S(=O)(=O)Nc2cccnc2Nc2ccc(O)cc2)cc1 | inconclusive [inhibitor, single point] | –
8 | NC[C@H]1O[C@H](O[C@H]2[C@@H](O)[C@@H](O[C@H]3O[C@H](CO)[C@@H](O)[C@H](N)[C@@H]3O)[C@H](N)C[C@@H]2N)[C@H](N)C[C@H]1O | – | inactive: -9.51% [at 9.73 µM]
9 | CCN(CC)CCNC(=O)c1ccc(N)cc1 | inactive | –
10 | NCc1ccccc1CC(=O)N[C@@H]1C(=O)N2C(C(=O)O)=C(CSc3nnnn3CC(=O)O)CS[C@H]12 | active: 15.8 µM | –
